# Measurements taken from a collection of fitness landscapes (doi:10.1126/science.1257360).
# The list shows a part of the results.
# B1: PhoQ; a variant is named by its letters at X, in order, P23837 (parent)
# chain: MKKLLRLFFPLSLRVRFLLATAAVVLVLSLAYGMVALIGYSVSFDKTTFRLLRGESNLFYTLAKWENNKLHVELPENIDKQSPTMTLIYDENGQLLWAQRDVPWLMKMIQPDWLKSNGFHEIEADVNDTSLLLSGDHSIQQQLQEVREDDDDAEMTHSVAVNVYPATSRMPKLTIVVVDTIPVELKSSYMVWSWFIYVLSANLLLVIPLLWVAAWWSLRPIEALAKEVRELEEHNRELLNPATTRELTSLVRNLNRLLKSERERYDKYRTTLTDLTHSLKTPLXXLQXXLRSLRSEKMSVSDAEPVMLEQISRISQQIGYYLHRASMRGGTLLSRELHPVAPLLDNLTSALNKVYQRKGVNISLDISPEISFVGEQNDFVEVMGNVLDNACKYCLEFVEISARQTDEHLYIVVEDDGPGIPLSKREVIFDRGQRVDTLRPGQGVGLAVAREITEQYEGKIVAGESMLGGARMEVIFGRQHSAPKDE
# Variants of: B1
# Experiment: enrichment ratio after two sorts for PhoP signalling (ratio (wild type AVST 3.29)); higher = more functional
# Conditions: with PhoP (E. coli)
row,Variant,enrichment ratio
1,ENKC,≤ 0.25
2,WNFC,≤ 0.25
3,FASF,≤ 0.25
4,RGHP,≤ 0.25
5,VMLS,≤ 0.25
6,GTDI,≤ 0.25
7,FIWF,≤ 0.25
8,HPYR,≤ 0.25
9,TWDW,≤ 0.25
10,VANH,≤ 0.25
11,AING,≤ 0.25
12,QEMY,≤ 0.25
13,IMPC,≤ 0.25
14,IPAH,≤ 0.25
15,GKSR,≤ 0.25
16,QSER,≤ 0.25
17,EARS,≤ 0.25
18,QARN,≤ 0.25
19,SILQ,6.96
20,ARLR,≤ 0.25
21,SHFS,≤ 0.25
22,ELIR,0.697
23,TNPG,≤ 0.25
24,SDKA,≤ 0.25

row,Variant,enrichment ratio
1,IWDA,≤ 0.25
2,MIWF,≤ 0.25
3,VAQG,≤ 0.25
4,YYTA,≤ 0.25
5,FLIH,≤ 0.25
6,AHWH,≤ 0.25
7,TMGH,15.3
8,TGIL,≤ 0.25
9,QMCQ,≤ 0.25
10,DPQY,≤ 0.25
11,TRAM,15.1
12,LHTL,≤ 0.25
13,IDEW,≤ 0.25
14,MDNQ,≤ 0.25
15,WECM,≤ 0.25
16,RSFV,≤ 0.25
17,IFHL,≤ 0.25
18,VYCQ,≤ 0.25
19,ILWE,≤ 0.25
20,LIMD,≤ 0.25
21,YCLI,3.1
22,SLNC,≤ 0.25
23,ACHF,≤ 0.25
24,ILKC,≤ 0.25

row,Variant,enrichment ratio
1,NPTS,≤ 0.25
2,VNSN,≤ 0.25
3,FLRG,≤ 0.25
4,TNDT,≤ 0.25
5,LHAH,≤ 0.25
6,TGRV,≤ 0.25
7,RAHK,≤ 0.25
8,TQAA,3.31
9,RTED,≤ 0.25
10,FVEP,≤ 0.25
11,KGDH,≤ 0.25
12,WMKA,≤ 0.25
13,TPMP,≤ 0.25
14,WEEN,≤ 0.25
15,DHNV,≤ 0.25
16,IWKW,≤ 0.25
17,PLMN,≤ 0.25
18,EAMP,≤ 0.25
19,HMTL,8.9
20,LPPM,≤ 0.25
21,KIYM,≤ 0.25
22,LTVM,≤ 0.25
23,CVFQ,≤ 0.25
24,SCHP,≤ 0.25

row,Variant,enrichment ratio
1,ERFF,≤ 0.25
2,FDRS,≤ 0.25
3,FEIA,≤ 0.25
4,FFCG,≤ 0.25
5,TCQF,6.94
6,KHID,≤ 0.25
7,MFYM,0.288
8,CTCC,≤ 0.25
9,SIIQ,2.23
10,VHQN,≤ 0.25
11,GSWP,≤ 0.25
12,DIHH,≤ 0.25
13,GISR,≤ 0.25
14,YHTI,≤ 0.25
15,EVTR,≤ 0.25
16,ICEF,≤ 0.25
17,WLRG,≤ 0.25
18,VPHH,≤ 0.25
19,MTGP,≤ 0.25
20,DFEW,≤ 0.25
21,EAVN,≤ 0.25
22,IVAQ,≤ 0.25
23,KIKK,≤ 0.25
24,QVEF,≤ 0.25

row,Variant,enrichment ratio
1,EVSL,≤ 0.25
2,YNPS,≤ 0.25
3,IPRN,≤ 0.25
4,SILW,≤ 0.25
5,QVGC,≤ 0.25
6,VLNF,≤ 0.25
7,HCPA,≤ 0.25
8,QYNK,≤ 0.25
9,DKCP,≤ 0.25
10,YLVP,≤ 0.25
11,WAAL,≤ 0.25
12,MQII,≤ 0.25
13,GEPK,≤ 0.25
14,NGTW,≤ 0.25
15,NAYS,≤ 0.25
16,PRVP,≤ 0.25
17,WVRW,≤ 0.25
18,RGHD,≤ 0.25
19,GVVK,≤ 0.25
20,ETTM,≤ 0.25
21,KTGR,≤ 0.25
22,FSMT,2.35
23,WHGQ,≤ 0.25
24,WMGY,≤ 0.25

row,Variant,enrichment ratio
1,TTGL,12.3
2,VIFT,≤ 0.25
3,YVMS,0.375
4,PDGN,≤ 0.25
5,SMQH,14.9
6,ESHI,≤ 0.25
7,MMEN,≤ 0.25
8,YRLP,≤ 0.25
9,YGKS,≤ 0.25
10,ESLR,≤ 0.25
11,QCWF,6.62
12,QLME,≤ 0.25
13,QHML,≤ 0.25
14,KILI,≤ 0.25
15,HWKV,≤ 0.25
16,AEVK,≤ 0.25
17,PIFS,≤ 0.25
18,FLNL,≤ 0.25
19,HSQP,≤ 0.25
20,LFVT,≤ 0.25
21,HWYQ,≤ 0.25
22,VFFR,≤ 0.25
23,FYTG,0.442
24,NMYF,≤ 0.25

row,Variant,enrichment ratio
1,YKND,≤ 0.25
2,NPGE,≤ 0.25
3,RDGA,≤ 0.25
4,YMRS,≤ 0.25
5,YTWM,≤ 0.25
6,MIKP,≤ 0.25
7,PETM,≤ 0.25
8,KRRS,≤ 0.25
9,MFCL,≤ 0.25
10,KYGI,≤ 0.25
11,VDKC,≤ 0.25
12,DEGM,≤ 0.25
13,GVKA,≤ 0.25
14,CTYI,≤ 0.25
15,HWKR,≤ 0.25
16,HEAH,≤ 0.25
17,KFRE,≤ 0.25
18,PKIY,≤ 0.25
19,SDDV,0.265
20,MNDP,≤ 0.25
21,KSRS,0.793
22,VDSS,≤ 0.25
23,TLYW,≤ 0.25
24,ICRM,≤ 0.25

row,Variant,enrichment ratio
1,YGQF,≤ 0.25
2,NRLL,≤ 0.25
3,TPMH,≤ 0.25
4,GQTA,≤ 0.25
5,DMYQ,≤ 0.25
6,GVTY,≤ 0.25
7,FPFH,≤ 0.25
8,PTNF,≤ 0.25
9,AIPI,2.44
10,PPKS,≤ 0.25
11,GAPA,≤ 0.25
12,TAMQ,8.34
13,RYHR,≤ 0.25
14,ICAE,≤ 0.25
15,QKEF,≤ 0.25
16,LCTT,≤ 0.25
17,SKTF,≤ 0.25
18,KVDE,≤ 0.25
19,ELCH,≤ 0.25
20,MELD,≤ 0.25
21,QMFP,≤ 0.25
22,VVVS,0.659
23,HVKW,≤ 0.25
24,LWTG,≤ 0.25

row,Variant,enrichment ratio
1,HRHK,≤ 0.25
2,SECN,23.5
3,PHFP,≤ 0.25
4,DNCN,≤ 0.25
5,VWLT,≤ 0.25
6,AFWS,≤ 0.25
7,FQSP,≤ 0.25
8,YEVV,1.59
9,TWTY,≤ 0.25
10,QTRK,≤ 0.25
11,AFYH,≤ 0.25
12,MVDW,≤ 0.25
13,KGAV,≤ 0.25
14,HRYK,≤ 0.25
15,MIPY,≤ 0.25
16,GNFS,≤ 0.25
17,HKMY,≤ 0.25
18,IPWR,≤ 0.25
19,FCFP,≤ 0.25
20,ITQG,≤ 0.25
21,DTNG,≤ 0.25
22,SAWS,≤ 0.25
23,IAWH,≤ 0.25
24,RPRW,≤ 0.25

row,Variant,enrichment ratio
1,HRFQ,≤ 0.25
2,NNRR,≤ 0.25
3,KPLW,≤ 0.25
4,HNWI,≤ 0.25
5,KTRR,≤ 0.25
6,LRFP,≤ 0.25
7,RTQY,≤ 0.25
8,ILCI,≤ 0.25
9,SKMY,1.95
10,PSWC,≤ 0.25
11,VTNS,≤ 0.25
12,MFSK,≤ 0.25
13,LDIP,≤ 0.25
14,WVHR,≤ 0.25
15,TTPC,≤ 0.25
16,NMYG,≤ 0.25
17,PEMS,≤ 0.25
18,YYEL,≤ 0.25
19,NLIV,≤ 0.25
20,WDHE,≤ 0.25
21,PLNE,≤ 0.25
22,GDDH,≤ 0.25
23,FRFV,≤ 0.25
24,NKLH,≤ 0.25

row,Variant,enrichment ratio
1,PFQW,≤ 0.25
2,IIRM,≤ 0.25
3,GYQW,≤ 0.25
4,SWCP,≤ 0.25
5,VCNM,≤ 0.25
6,YWLR,≤ 0.25
7,GRLT,≤ 0.25
8,YNQQ,≤ 0.25
9,VVFR,≤ 0.25
10,QEGW,≤ 0.25
11,NSSV,≤ 0.25
12,FDPI,≤ 0.25
13,EDCS,≤ 0.25
14,EYWS,≤ 0.25
15,LCAT,≤ 0.25
16,AHYQ,≤ 0.25
17,HGQA,≤ 0.25
18,SHEG,≤ 0.25
19,YASI,≤ 0.25
20,LAWQ,≤ 0.25
21,CFST,≤ 0.25
22,YGPR,≤ 0.25
23,EHHI,≤ 0.25
24,TICG,6.77

row,Variant,enrichment ratio
1,HWSP,≤ 0.25
2,WQDR,≤ 0.25
3,DYIF,≤ 0.25
4,VTQF,1.56
5,LQYN,≤ 0.25
6,EGEH,≤ 0.25
7,LGYI,3.07
8,DPLH,≤ 0.25
9,TFNT,1.87
10,SLHR,≤ 0.25
11,DPNA,≤ 0.25
12,GHWQ,≤ 0.25
13,FCMT,≤ 0.25
14,NPDT,≤ 0.25
15,IQFD,≤ 0.25
16,GLDD,≤ 0.25
17,IEEV,≤ 0.25
18,VVAM,≤ 0.25
19,KIHA,≤ 0.25
20,PENI,≤ 0.25
21,KFQQ,≤ 0.25
22,ISPV,≤ 0.25
23,LCDI,≤ 0.25
24,QDYE,≤ 0.25

row,Variant,enrichment ratio
1,AQCA,32.5
2,QPSC,≤ 0.25
3,LWIG,≤ 0.25
4,MTGD,≤ 0.25
5,MEFI,5.13
6,FHRI,≤ 0.25
7,HYAE,≤ 0.25
8,HLYT,≤ 0.25
9,ALHK,≤ 0.25
10,TVSC,6.5
11,MVFG,≤ 0.25
12,ESVD,≤ 0.25
13,QNIL,≤ 0.25
14,TMDP,≤ 0.25
15,IKMW,≤ 0.25
16,MTYY,0.96
17,RVNK,≤ 0.25
18,EKPI,≤ 0.25
